According to US12564641B2 (EISAI R&D MANAGEMENT CO., LTD., priority 2019, dated 2026):

Experiments:
[1] = tested on: human gastric cancer NCI-N87 xenograft; test: Human gastric cancer NCI-N87 xenograft model (Study M109-010-2018); assay type: in vivo, mouse; conditions: 10 mg/kg
[2] = tested on: human mesothelioma PDX Meso7212; conditions: mouse, in vivo, 10 mg/kg
[3] = Eribulin quantitation by LC-MS in plasma, tumor, and bone marrow (Example 9); assay type: in vivo, mouse; conditions: single dose 10 mg/kg
Description: (§1) PK analysis was performed using both an intact ADC assay and a total antibody assay. Total antibody refers to the sum total of all species, including conjugated and unconjugated species (i.e., DAR0+DAR1+DAR2+ . . . +DARn), whereas intact ADC refers to all conjugated species (i.e., DAR1+DAR2+ . . . +DARn). Total antibody assay used biotinylated mesothelin for capture and AlexaFluor647-labelled anti-human Fc for detection. Intact ADC assay used biotinylated anti-eribulin 5E4 for capture and AlexaFluor647-labelled anti-human Fc for detection. Sample analysis was performed on a Gyros analyzer. Data analysis was performed in WatsonLIMS 7.4.1 and plotted in Microsoft Excel. Eribulin was quantitated using LC-MS from plasma, tumor, and bone marrow samples. 9.1.3 LC-MS

[4] = Pharmacokinetics (total antibody and intact ADC, Gyros) in NCI-N87 tumor-bearing mice (Example 9); assay type: in vivo, mouse; conditions: single dose 10 mg/kg
Description: as §1

[5] = tested on: human mesothelioma PDX Meso7212; test: Human mesothelioma PDX model Meso7212 (Example 3); conditions: for anti-tumor response: single administration of 10 mg/kg
[6] = DAR of ADC in plasma samples by LC-MS (Example 9); assay type: in vivo, mouse; conditions: single dose 10 mg/kg; for Averaged DAR / H-chain (DAR in plasma) / L-chain (DAR in plasma): plasma
Description: Dynabeads M-280 streptavidin (100 μL) were incubated with 3 μg of capture select human IgG-Fc PK biotin conjugate for 1 hour at room temperature, then washed with HBS-EP buffer. […] Washed beads containing complex were deglycosylated with Rapid PNGaseF (1 μL) in PNGase buffer for 1 hour at 37° C., then washed once in HBS-EP buffer. […] Samples were analyzed for intact or reduced mass with Synapt G2/M-class UPLC analysis.

[7] = tested on: MSLN-positive cell lines
[8] = tested on: human mesothelioma HAY xenograft; conditions: single dose 5 mg/kg
Description: Female CD-1 IGS mice (Charles River, 7-9 weeks old) were used for the maximum tolerated dose (MTD) study, female NOD.CB17-SCID mice (Jackson Laboratory) were used for the NCI-H2110 and HAY xenograft studies, and female NCr nude mice (Taconic, 5 weeks old) were used for the NCI-N87 xenograft studies. Upon arrival, animals were acclimated for 5-7 days prior to inoculation.
Cryopreserved NCI-H2110, NCI-N87, or HAY cells from frozen stocks were cultured in medium containing necessary supplements.
Mice were injected subcutaneously with 100 μL/mouse of cell mixture and monitored for body weight and tumor growth.
Mice were randomized to five mice per group once tumor implants reached an average volume of 100 mm^3. Treatment was given intravenously at a volume of 200 μL. Terminal body weight was measured and recorded at the end of each study.
Comparison of tumor growth within each experimental group was also performed using the same statistical analysis.

[9] = tested on: MSLN-expressing CHO cells; test: ADCC activity, luciferase assay with Jurkat-Effector cells; assay type: cell-based; conditions: Table 33: MORAb-109 and 345A12 HC15 LC4
Description: MSLN-expressing CHO cells were thawed and seeded 1.000 cells/well (25 μL) in 96-well tissue culture plates in complete RPMI-4% Ultralow IgG FBS. […] 6,000 Jurkat-Effector cells (Promega) were thawed and added (25 μL) to the cell plate, and the plate was incubated at 37° C. 5% CO2 for 18-22 hours.
Luciferase assay reagent was thawed in the dark. 75 μL of luciferase assay reagent was added to each well, plates were shaken for 30 sec on a plate shaker. Plates were read on a luminometer after 5 min incubation.

[10] = Pharmacokinetics (total antibody and intact ADC, Gyros) in NCI-N87 tumor-bearing mice, dose titration (Example 5); assay type: in vivo, mouse; conditions: NCI-N87 tumor-bearing mice
Description: as §1, with “mesothelin for capture. Intact ADC” for “mesothelin for capture and AlexaFluor647-labelled anti-human Fc for detection. Intact ADC”, “anti-eribulin 5E4 Fab fragment for capture” for “anti-eribulin 5E4 for capture”, “Microsoft Excel.” for “Microsoft Excel. Eribulin was quantitated using LC-MS from plasma, tumor, and bone marrow samples. 9.1.3 LC-MS”

[11] = eribulin in bone marrow, NCI-N87-tumor-bearing mice
[12] = eribulin in plasma, NCI-N87-tumor-bearing mice
[13] = eribulin in tumor, NCI-N87-tumor-bearing mice
[14] = NCI-N87 tumor-bearing mice, […]

B1: MORAb-109 (DAR6) (conjugate)
heavy: QVQLVESGGGVVQPGRSLRLSCAASGIDLSSYAMSWVRQAPGKGLEWIGVIDISGNRFYADWVKGRFTISRDNSKNTLYLQMSSLRAEDTAVYYCARVDSRAWGPFNLWGQGTLVTVSS[skipping human IgG1 constant region]
light: DYQMTQSPSSLSASVGDRVTITCQASQSIFSYLAWYQQKPGKAPKLLIYDASDLASGVPSRFSGSGSGTDFTLTISSLQCEDAATYYCQQGYTRSDVDNAFGGGTKVEIKRTVAAPSVFIFPPSDEQLKSGTASVVCLLNNFYPREAKVQWKVDNALQSGNSQESVTEQDSKDSTYSLSSTLTLSKADYEKHKVYACEVTHQGLSSPVTKSFNRGEC
[1]; FIG. 13A
  anti-tumor response: durable and similar anti-tumor responses
[1]; FIG. 13B
  body weight change: little to no weight loss
[2]
  body weight change: No body weight loss
[3]; [11]
  AUC0-inf, Bone marrow ERI: 6.7 µg·h/mL
  T1/2, Bone marrow ERI: 76 h
  Tmax, Bone marrow ERI: 3 h
[3]; [12]
  AUC0-inf, Plasma ERI: 0.121 µg·h/mL
  Cmax, Plasma ERI: 0.0026 µg/mL
  T1/2, Plasma ERI: 33 h
  Tmax, Plasma ERI: 1 h
[3]; [13]
  AUC0-inf, Tumor ERI: 16.0 µg·h/mL
  Cmax, Tumor ERI: 96 ng/g
  T1/2, Tumor ERI: 98 h
  Tmax, Tumor ERI: 24 h
[3]; DAR6 vs DAR2
  plasma levels of eribulin: higher plasma levels of eribulin
[4]
  AUC0-inf, ADC: 13700 µg·h/mL
  AUC0-inf, Total Ab: 14400 µg·h/mL
  CLtot, ADC: 17.5 mL/day/kg
  Cmax, Total Ab: 148 µg/mL
  T1/2, ADC: 103 h
  T1/2, Total Ab: 129 h
  Tmax, Total Ab: 0.17 h
  Vdss, ADC: 0.1 L/kg
[5]; Meso7212 (MV15369), both treatment regimens, P<0.05
  anti-tumor activity as compared to the MTD dose of eribulin alone: significantly increased anti-tumor activity
[5]; Meso7212 (MV15369)
  anti-tumor response: durable and comparable anti-tumor responses
[5]; Meso7212 (MV16071)
  anti-tumor response: durable and comparable anti-tumor responses
[6]; [14]
  Averaged DAR: 5.52
  H-chain (DAR in plasma): 1.23
  L-chain (DAR in plasma): 1.52
[6]; 8 hr
  Averaged DAR: 5.18
  H-chain (DAR in plasma): 1.13
  L-chain (DAR in plasma): 1.46
[6]; 24 hr
  Averaged DAR: 4.15
  H-chain (DAR in plasma): 0.81
  L-chain (DAR in plasma): 1.26
[6]; 48 hr
  Averaged DAR: 3.91
  H-chain (DAR in plasma): 0.71
  L-chain (DAR in plasma): 1.25
[6]; 96 hr
  Averaged DAR: 3.42
  H-chain (DAR in plasma): 0.44
  L-chain (DAR in plasma): 1.27
[6]; 336 hr
  Averaged DAR: 2.41
  H-chain (DAR in plasma): 0.35
  L-chain (DAR in plasma): 0.86
[6]; […]
  Averaged DAR: 2.61
  H-chain (DAR in plasma): 0.38
  L-chain (DAR in plasma): 0.93
[6]; DAR6 vs DAR2
  payload release rate (DAR analysis of plasma samples): higher
[7]
  cytotoxicity on MSLN-positive cell lines: specific cytotoxicity
[8]; FIG. 14A
  anti-tumor response: durable and similar anti-tumor responses
[8]; FIG. 14B
  body weight change: no body weight loss

B2: MORAb-109 (conjugate)
heavy: B1 heavy
light: B1 light
modifications: non-natural residues
[9]
  ADCC activity: 96.9%
[10]; 5 mg/kg, Intact ADC
  CL: 12.2 mL/day/kg
  Cmax: 62.9 µg/mL
  T1/2: 125.1 h
  Vdss: 0.0787 L/kg
[10]; 5 mg/kg, Total Ab
  CL: 7.58 mL/day/kg
  Cmax: 73.2 µg/mL
  T1/2: 173.9 h
  Vdss: 0.0751 L/kg
[10]; 10 mg/kg, Intact ADC
  CL: 11.4 mL/day/kg
  Cmax: 105 µg/mL
  T1/2: 148.2 h
  Vdss: 0.0995 L/kg
[10]; 10 mg/kg, Total Ab
  CL: 6.22 mL/day/kg
  Cmax: 123 µg/mL
  T1/2: 231.6 h
  Vdss: 0.0896 L/kg
[10]; 15 mg/kg, Intact ADC
  CL: 9.94 mL/day/kg
  Cmax: 169 µg/mL
  T1/2: 142.1 h
  Vdss: 0.0811 L/kg
[10]; 15 mg/kg, Total Ab
  CL: 5.66 mL/day/kg
  Cmax: 205 µg/mL
  T1/2: 209.2 h
  Vdss: 0.0688 L/kg
[10]; 20 mg/kg, Intact ADC
  CL: 10.3 mL/day/kg
  Cmax: 214 µg/mL
  T1/2: 151.5 h
  Vdss: 0.0909 L/kg
[10]; 20 mg/kg, Total Ab
  CL: 5.52 mL/day/kg
  Cmax: 270 µg/mL
  T1/2: 218.6 h
  Vdss: 0.0706 L/kg
[10]; 25 mg/kg, Intact ADC
  CL: 11.1 mL/day/kg
  Cmax: 271 µg/mL
  T1/2: 143.5 h
  Vdss: 0.0911 L/kg
[10]; 25 mg/kg, Total Ab
  CL: 5.76 mL/day/kg
  Cmax: 322 µg/mL
  T1/2: 226.1 h
  Vdss: 0.0782 L/kg
